# Measurements taken from PubChem BioAssay AID686978 (National Center for Advancing Translational Sciences (NCATS), 2013).
# Among all 420,000 compounds or so, about 64,000 (15%) were called active. Inconclusive results, whose numbers are uncertain, are shown with a selection of clear calls. Calls come from the whole dose curve; as a rule, active = well fitted inhibition curve with a large enough effect; inconclusive = small, poorly fitted or top-dose-only effect; inactive = flat fitted curve, though single readings scatter. No potency is given beside an inconclusive call; the fits are too rough.
# Test: qHTS for Inhibitors of human tyrosyl-DNA phosphodiesterase 1 (TDP1): qHTS in cells in absence of CPT; note: nearly all actives have a fitted effect of over 55% in size
# Settings: DT40 Tdp1-/- hTDP1 cells, no CPT, ATP luminescence, 48 h; activity change, negative = growth inhibition: at 46.2 µM (top of the series)
# Procedure, shortened: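 Camptothecin absent (DMSO only). Human TDP1-complemented DT40 knockout cells, 400 cells/well, 37 °C for minimum 48 hr; ATP measured via CellTiter-Glo, 30 min dark incubation, luminescence.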
# % is set by controls: 0 for no effect and ±100 for the full control effect; potency is the fitted concentration of half-maximal effect; tags give direction and shape of the fitted curve.
Compound,Potency,"activity change, negative = growth inhibition"
COc1ccc(-c2[nH]c(-c3ccc(OC)c(OC)c3)nc2SCC(=O)Nc2ccccc2)cc1,"inconclusive [inhibitor, single point]",–
CCCC(=O)Nc1ccc2c(c1)nc1n2CCSC1,inactive,–
CCOc1cc(/C=N\NC(=O)CN2CCOCC2)ccc1OCc1ccc(F)cc1,"inconclusive [inhibitor, single point]",–
CCC(=O)Nc1cccc(-n2nnnc2SCC(=O)N(C(C)C)C(C)C)c1,"inconclusive [inhibitor, single point]",–
CC1Cc2ccccc2N1C(=S)Nc1ccc(S(N)(=O)=O)cc1 (stereo unspecified),"inconclusive [inhibitor, partial curve, poor fit]",–
Cc1ccc(S(=O)(=O)NNC(=O)c2sc(=S)n(C)c2C)cc1,inactive,–
Cc1ccc(Nc2c(-c3ccc(N(C)C)cc3)nc3ccccn23)cc1,"inconclusive [inhibitor, single point]",–
COc1cc(C(=S)N2CCOCC2)cc(OC)c1OC(=O)Cc1ccc(F)cc1,"inconclusive [inhibitor, single point]",–
COc1cc(NC(=O)CCc2c(C)noc2C)c(Cl)cc1C(=O)O,inactive,–
COC(=O)CSC1=C(C#N)C(c2ccc(C)o2)CC(=O)N1 (stereo unspecified),active: 2.91 µM,–
C=C1CCN([C@@H](CC(C)C)C(=O)NCc2ccc(Cl)cc2)S(=O)(=O)c2ccccc21,"inconclusive [inhibitor, single point]",–
Cc1cc[n+](CC2OCc3ccccc3CO2)cc1,active: 18.4 µM,–
CC1(C)Oc2ccc3ccc(=O)oc3c2/C(=C/NC2CCCCC2)C1=O,"inconclusive [inhibitor, partial curve, poor fit]",–
C=C(C)COc1ccc(-c2[nH]ncc2Oc2ccccc2OC)c(O)c1,"inconclusive [inhibitor, single point]",–
C[C@H](CO)N1C[C@H](C)[C@H](CN(C)Cc2ccccc2)Oc2ccc(NC(=O)Nc3ccc(F)cc3)cc2C1=O,"inconclusive [inhibitor, single point]",–
CC(=O)Oc1ccccc1Cn1c(C)c(C(=O)NCc2cccc(Cl)c2)sc1=O,"inconclusive [inhibitor, single point]",–
CCSc1nnc(CNC(=O)C23CC4CC(CC(C4)C2)C3)n1C1CCCCC1,active: 25.9 µM,–
COC(=O)[C@@]1(Cc2ccc(F)cc2)[C@H]2C(CC(=O)C(=O)N3CCCC3)C(=O)C[C@H]2CN1C(=O)c1ccccc1 (stereo partly specified),"inconclusive [inhibitor, single point]",–
Cc1ccc(-c2ccc(CCC(=O)O)n2-c2cccc(C(=O)O)c2)cc1,inactive,–
CC1(C)O[C@@H]2[C@H](O1)[C@@H](CO)O[C@H]2n1cnc2c(=O)[nH]cnc21,inactive,–
O=C(Nc1ccc(S(=O)(=O)NCCc2ccccc2)cc1)c1ccco1,"inconclusive [inhibitor, partial curve, poor fit]",–
CCC(C(=O)NCc1cccnc1)n1nc(C)c2sc3ccccc3c2c1=O (stereo unspecified),"inconclusive [inhibitor, single point]",–
OCC(CO)N[C@H]1C[C@](O)(CO)[C@@H](O)[C@H](O)[C@H]1O,"inconclusive [inhibitor, single point]",–
CC(C)N(Cc1ccccc1)S(=O)(=O)c1ccc(Cl)nc1,"inconclusive [inhibitor, single point]",–

Compound,Potency,"activity change, negative = growth inhibition"
S=C(NC1CC1)SCc1ccco1,"inconclusive [inhibitor, single point]",–
CC1Cc2nc(SCC(=O)NC3CCCCC3)n(C)c(=O)c2S1 (stereo unspecified),inactive,–
COc1ccc2oc(C(=O)OCC(=O)N3CCCCC3C)c(C)c2c1 (stereo unspecified),"inconclusive [inhibitor, single point]",–
CC1=C(C(N)=O)C(c2cccc(C)c2)n2nc(-c3ccc(Cl)cc3)nc2N1 (stereo unspecified),"inconclusive [inhibitor, single point]",–
CSc1ccccc1NC(=O)C1=CC(c2ccc3c(c2)OCO3)=NS(=O)(=O)N1C,"inconclusive [inhibitor, single point]",–
N#Cc1cccc(CN2CCC(=O)N(CCO)CC2)c1,inactive,–
C=C(C)CCC1(C)NC(=O)N(c2ccccc2)N1 (stereo unspecified),inactive,–
COCCN1C(=O)Cc2c1nc(N)c1c(N)nc(N3CCN(c4ccc(F)cc4)CC3)c(C#N)c21,active: 2.06 µM,–
CC1(c2nnc(Cc3ccccc3)o2)CC(c2ccccc2[N+](=O)[O-])=NO1 (stereo unspecified),"inconclusive [inhibitor, partial curve]",–
Cc1ccc(C(=O)O)cc1-c1ccc(/C=C2\SC(=O)N(CC(=O)Nc3ccccc3)C2=O)o1,"inconclusive [inhibitor, single point]",–
CCCn1nc(C(=O)NNC(=O)CSC(C)C(=O)Nc2cc(C)on2)c2ccccc2c1=O (stereo unspecified),inactive,–
Cc1cc(Br)cn2c(Cc3ccccc3C(F)(F)F)c(-c3ccccc3)nc12,"inconclusive [inhibitor, single point]",–
O=C(NCC1(c2ccccc2)CCCC1)C1(c2ccccc2)CCCC1,"inconclusive [inhibitor, single point]",–
CCCCC(=O)Nc1cccc(-c2csc(-c3ccccc3)n2)c1,"inconclusive [inhibitor, single point]",–
Cc1ccnc(NC(=O)c2cccc(S(=O)(=O)NCc3ccccc3)c2)c1,"inconclusive [inhibitor, single point]",–
CCN1C(=O)/C(=C\c2cccs2)C(C(=O)OC)=C1C,"inconclusive [inhibitor, partial curve, poor fit]",–
CCOC(=O)CCN(Cc1ccccc1)S(=O)(=O)c1csc(C(N)=O)c1,inactive,–
COc1ccc(C(CNC(=O)c2cc(F)c(F)c(F)c2F)N2CCOCC2)cc1 (stereo unspecified),"inconclusive [inhibitor, single point]",–
CC(C)Cc1nc(SCC(=O)N2CCCCC2)c2c(=O)n(C)c(=O)n(C)c2n1,"inconclusive [inhibitor, single point]",–
CCN(CC)c1ccc(/C=N/Nc2ccc(C)cc2)c(O)c1,active: 11.6 µM,–
CCOC(=O)N1CCN(C(c2cc3ccccc3o2)c2nnnn2C(C)(C)C)CC1 (stereo unspecified),"inconclusive [inhibitor, single point]",–
COc1ccc(NC(=O)c2c(NC(=O)COc3ccc(Cl)cc3)sc3c2CCCCC3)cc1,inactive,–
CCc1cccc(CC)c1-n1c(SCC(=O)N2CCc3ccccc32)nc(O)cc1=O,"inconclusive [inhibitor, partial curve]",–
CCOC(=O)C1=C(C)N=c2sc(=Cc3ccc(OCC(=O)O)cc3)c(=O)n2C1c1ccc(SC)cc1 (stereo unspecified),inactive,–

Compound,Potency,"activity change, negative = growth inhibition"
CC(C)Cn1c(N)c(C(=O)COC(=O)c2cccn2C)c(=O)n(C)c1=O,active: 16.4 µM,–
CCC(C)n1c(SCC(=O)NC2CCCC2)nc2ccccc2c1=O (stereo unspecified),"inconclusive [inhibitor, single point]",–
CN(Cc1ccc(F)cc1)C(=O)COc1ccc2ccccc2c1,inactive,–
CS(=O)(=O)Nc1ccc(C(=O)Nc2cccc([N+](=O)[O-])c2)cc1,inactive,–
O=c1c2c(n3nnnc3n1-c1ccccc1)-c1ccccc1CC21CCCC1,"inconclusive [inhibitor, partial curve]",–
COc1ccccc1-c1n[nH]c(=S)n1-c1ccccc1,inactive,–
COc1ncc2nc(CCc3ccccc3)c(=O)n(Cc3cccs3)c2n1,active: 20.6 µM,–
COc1cc(OC)c(NC(=O)N2CCOc3ccc(C)cc32)cc1Cl,"inconclusive [inhibitor, single point]",–
CNC(=S)N/N=C/c1cc(C)ccc1C,"inconclusive [inhibitor, single point]",–
O=C1CC(c2ccccc2)CC(O)=C1C=NC1CCCCCC1 (stereo unspecified),–,inconclusive: -33.2% [inhibitor]
Cc1cc(N2C(=O)C(=O)/C(=C(/O)c3ccccc3)C2c2cccs2)no1 (stereo unspecified),inactive,–
CCc1cc(C(=O)c2ccc(OC)cc2)c(NC(=O)CN2CCN(C)CC2)s1,"inconclusive [inhibitor, single point]",–
Cc1cc(C(=O)Nc2ccc(F)c(Cl)c2)on1,inactive,–
CCn1c(=O)c(C(=O)NCc2ccc3c(c2)OCO3)c(O)c2ccccc21,"inconclusive [inhibitor, single point]",–
Cc1cc2ccccn2c1C(=O)c1ccc(Cl)c([N+](=O)[O-])c1,"inconclusive [inhibitor, single point]",–
CC(CN1CCc2nnc(CNC(=O)c3cccc(F)c3)n2CC1)c1ccccc1 (stereo unspecified),"inconclusive [inhibitor, single point]",–
N#Cc1cc2c(=O)n3ccccc3nc2n(-c2nnc(SCc3ccc(F)cc3)s2)c1=O,inactive,–
CCOc1ccc(C(=O)Nc2ccc(Cc3ccncc3)cc2)cc1Br,inactive,–
CC(Oc1cc2oc(=O)c3c(c2cc1Cl)CCC3)C(=O)NCc1ccncc1 (stereo unspecified),"inconclusive [inhibitor, single point]",–
Nc1nc2ccc(Cl)cc2cc1C(=O)NCc1ccc(Oc2ccccc2)cc1,active: 1.3 µM,–
COc1ccc(Cn2nnc3c(=O)[nH]c(C4CCCN(C(=O)c5ccccc5Cl)C4)nc32)cc1OC (stereo unspecified),inactive,–
Cc1ccccc1-n1c(C)nnc1SCC(=O)NC1CCCc2ccccc21 (stereo unspecified),inactive,–
Cc1nn(-c2ccccc2)c2nc(N)c(C#N)c(-c3ccc(O)c(O)c3)c12,"inconclusive [inhibitor, single point]",–
